In PubChem BioAssay AID588453 (National Center for Advancing Translational Sciences (NCATS), 2011):
About 4,000 (1%) of roughly 390,000 compounds were called active. Inconclusive means that the source gave no clear call. Such entries were picked first, then a sample of the others. Calls come from the whole dose curve; as a rule, active = well fitted inhibition curve with a large enough effect; inconclusive = small, poorly fitted or top-dose-only effect; inactive = no such curve, though single readings can be large or run the other way. Where the call is inconclusive, the potency comes from a doubtful curve fit.

Molecular target: Thioredoxin reductase 1, cytoplasmic (Rattus norvegicus) (UniProt O89049)
Assay: qHTS Assay for Inhibitors of Mammalian Selenoprotein Thioredoxin Reductase 1 (TrxR1): qHTS; note: nearly all actives have a fitted effect of over 65% in size
Conditions: recombinant rTrxR1, NADPH fluorescence consumption, selenite substrate; series mostly up to 114 µM; activity change, negative = inhibition: at the top concentration
Method in brief: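 Rat TrxR1 (90 nM in the dispensed reagent) was pre-reduced with 400 uM NADPH for 5 min at room temperature, then incubated with compound for 15 min. After 400 uM selenite was added, NADPH fluorescence (Ex 340/Em 450 nm) was followed for 8 min.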
% is set by controls: 0 for no effect and ±100 for the full control effect; potency is the fitted concentration of half-maximal effect; tags give direction and shape of the fitted curve.

Chain of UniProt O89049 (O89049 whole entry, looked up): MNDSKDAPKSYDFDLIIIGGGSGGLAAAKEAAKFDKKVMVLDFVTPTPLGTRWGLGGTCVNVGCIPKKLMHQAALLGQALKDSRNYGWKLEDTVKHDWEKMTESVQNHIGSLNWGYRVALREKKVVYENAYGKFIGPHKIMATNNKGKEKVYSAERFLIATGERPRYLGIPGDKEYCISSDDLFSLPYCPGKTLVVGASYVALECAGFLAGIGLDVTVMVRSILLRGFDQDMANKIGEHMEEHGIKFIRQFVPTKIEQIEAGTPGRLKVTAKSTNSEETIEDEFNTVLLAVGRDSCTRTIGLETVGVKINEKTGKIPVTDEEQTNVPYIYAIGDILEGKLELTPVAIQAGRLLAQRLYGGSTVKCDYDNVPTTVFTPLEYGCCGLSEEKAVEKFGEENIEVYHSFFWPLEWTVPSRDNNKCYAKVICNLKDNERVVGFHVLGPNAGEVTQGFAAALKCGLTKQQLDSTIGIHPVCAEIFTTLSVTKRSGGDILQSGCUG

Compound	Potency	activity change, negative = inhibition
CCSc1nnc(NC(=O)c2c(C)noc2C)s1	inconclusive: 35.5 µM [inhibitor, partial curve, poor fit]	–
O=C(c1ccc(N2CCOCC2)c([N+](=O)[O-])c1)N1CCCCC1	inconclusive: 39.8 µM [inhibitor, single point]	–
Cc1ccc(-c2nc(C)sc2CC(=O)NCc2ccco2)cc1	active: 50.1 µM	–
COc1ccc2c(c1)CCc1c(C(=O)Nc3c(C)nn(Cc4c(Cl)cccc4Cl)c3C)noc1-2	inconclusive: 56.2 µM [inhibitor, partial curve, poor fit]	–
CCCc1cc(=S)n2c([nH]c3ccccc32)c1C#N	inconclusive: 1.78 µM [inhibitor, full curve]	–
O=C(Cn1cnc2onc(-c3ccc(F)cc3)c2c1=O)N1CCN(c2ccccc2F)CC1	–	inactive: 23.4%
OCCC1CN(CC#Cc2ccccc2)CCN1Cc1ccccc1F (stereo not drawn)	inconclusive: 22.4 µM [inhibitor, full curve]	–
COc1ccc(C(=O)OCC(=O)NCc2ccco2)cc1OC	inconclusive: 50.1 µM [inhibitor, partial curve, poor fit]	–
CC(C(=O)NCc1cccc(Br)c1)n1ncn2cccc2c1=O (stereo not drawn)	inconclusive: 89.1 µM [inhibitor, single point]	–
COc1ccc(/C=C/C(=O)NC(=S)Nc2ccc(S(=O)(=O)Nc3ccc(OC)nn3)cc2)cc1	inconclusive: 56.2 µM [inhibitor, partial curve]	–
COc1cc2cc(C)c(SCC(=O)N3CCN(C(=O)c4ccco4)CC3)nc2cc1OC	inconclusive: 56.2 µM [inhibitor, single point]	–
O=C(NNc1c2ccccc2nc2ccccc12)c1ccc(O)cc1O	–	inactive: -10.6%
O=c1c2c3c(sc2n(CCN2CCCC2)c(=O)n1Cc1ccco1)CCCCC3	inconclusive: 50.1 µM [inhibitor, single point]	–
CC(=O)NC(N(C#N)c1nc(Cl)nc(N(C)C)n1)C(Cl)(Cl)Cl (stereo not drawn)	inconclusive: 39.8 µM [inhibitor, single point]	–
CCOc1cc(C(=O)OCC(=O)Nc2ncc(Cl)c(C)c2Cl)ccc1OCC(=O)N1CCOCC1	inconclusive: 79.4 µM [inhibitor, partial curve, poor fit]	–
O=C(C[n+]1cccc(Br)c1)c1cccc([N+](=O)[O-])c1	–	inactive: -35.7%
Cc1cc(NC(=O)c2cc(-c3ccccn3)nc3c(Cl)cccc23)no1	inconclusive: 79.4 µM [inhibitor, single point]	–
CCOc1cc(C2C(C#N)=C(N)Oc3n[nH]c(CC)c32)ccc1OCCN1CCOCC1 (stereo not drawn)	inconclusive: 89.1 µM [inhibitor, partial curve, poor fit]	–
